# From the supplement of paper PMC8728848
# The other results are listed elsewhere or left out.
# B1: rCnSL-proA (Clitocybe nebularis) (protein)
# chain: AAFFSLVVLLALLPFGIHASALPSTELTPRVNPNLPGPNDVFVGFRGTNNIVGAIYEKDGIKDTPLNNGADAEMGPGSYITDGLFTARIFASGSAGNNPGTTATVCKIYASGVQWRGAPKGYIPVAYFGNGPTAEQRRQTYLRTLGLPGTAIRFGNLNTNPGQGPTAPRQMVVPPGPLRSLLKASCFPAADTRLPQTLHYFEKRVDWNIITAADSQTWGH
# Columns and labels:
# Experiment in all cases: glycan array binding signal (z-score within array); higher = stronger binding
# Conditions in all cases: glycan notation: IUPAC condensed, linker removed
# Fuc(a1-3)GlcNAc = target: Fuc(a1-3)GlcNAc
# Outline: (§1)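 Arrays were curated from the Consortium for Functional Glycomics database, 3228 in total, and kept only where the protein sequence was available. Binding is expressed as a within-array Z-score. This score was averaged across arrays of the same protein sequence at different concentrations or buffers and across linkers, and negative values can be read as non-binding.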
# [1] = target: Fuc(a1-3)[Gal(b1-4)]Glc6S
# Outline: as §1
# [2] = target: Fuc(a1-3)[Gal(b1-4)]GlcNAc
# Outline: as §1
# [3] = target: Fuc(a1-3)[Gal(b1-4)]GlcNAc(b1-2)Man
# Outline: as §1
# [4] = target: Fuc(a1-3)[Gal(b1-4)]GlcNAc(b1-2)Man(a1-3)[Fuc(a1-3)[Gal(b1-4)]GlcNAc(b1-2)Man(a1-6)]Man(b1-4)GlcNAc(b1-4)GlcNAc
# Outline: as §1
# [5] = target: Fuc(a1-3)[Gal(b1-4)]GlcNAc(b1-2)Man(a1-3)[Fuc(a1-3)[Gal(b1-4)]GlcNAc(b1-2)Man(a1-6)]Man(b1-4)GlcNAc(b1-4)[Fuc(a1-6)]GlcNAc
# Outline: as §1
# [6] = target: Fuc(a1-3)[Gal(b1-4)]GlcNAc(b1-3)Gal(b1-3)[Fuc(a1-4)]GlcNAc
# Outline: as §1
# [7] = target: Fuc(a1-3)[Gal(b1-4)]GlcNAc(b1-3)Gal(b1-4)[Fuc(a1-3)]GlcNAc
# Outline: as §1
# [8] = target: Fuc(a1-3)[Gal(b1-4)]GlcNAc(b1-3)Gal(b1-4)[Fuc(a1-3)]GlcNAc(b1-3)Gal(b1-4)[Fuc(a1-3)]GlcNAc
# Outline: as §1
# [9] = target: Fuc(a1-3)[Gal(b1-4)]GlcNAc(b1-3)GalNAc
# Outline: as §1
# [10] = target: Fuc(a1-3)[Gal(b1-4)]GlcNAc(b1-6)GalNAc
# Outline: as §1
# [11] = target: Fuc(a1-3)[Gal(b1-4)]GlcNAc(b1-6)[Gal(b1-3)GlcNAc(b1-3)]Gal(b1-4)Glc
# Outline: as §1
# [12] = target: Fuc(a1-3)[Gal(b1-4)]GlcNAc6S
# Outline: as §1
# [13] = target: Fuc(a1-3)[Gal3S(b1-4)]Glc
# Outline: as §1
# [14] = target: Fuc(a1-3)[Gal3S(b1-4)]GlcNAc
# Outline: as §1
# [15] = target: Fuc(a1-3)[Gal3S(b1-4)]GlcNAc6S
# Outline: as §1
# [16] = target: Fuc(a1-3)[GalNAc(b1-4)]GlcNAc
# Outline: as §1
# [17] = target: Fuc(a1-3)[GalNAc(b1-4)]GlcNAc6S
# Outline: as §1
# Fuc(a1-4)GlcNAc = target: Fuc(a1-4)GlcNAc
# Outline: as §1
# Fuc(b1-3)GlcNAc = target: Fuc(b1-3)GlcNAc
# Outline: as §1
# Gal(a1-2)Gal = target: Gal(a1-2)Gal
# Outline: as §1
# Gal(a1-3)Gal = target: Gal(a1-3)Gal
# Outline: as §1
# Gal(a1-3)Gal(b1-3)GlcNAc = target: Gal(a1-3)Gal(b1-3)GlcNAc
# Outline: as §1
# [18] = target: Gal(a1-3)Gal(b1-3)GlcNAc(b1-2)Man
# Outline: as §1
# [19] = target: Gal(a1-3)Gal(b1-3)GlcNAc(b1-2)Man(a1-3)[Gal(a1-3)Gal(b1-3)GlcNAc(b1-2)Man(a1-6)]Man(b1-4)GlcNAc(b1-4)GlcNAc
# Outline: as §1
# [20] = target: Gal(a1-3)Gal(b1-3)GlcNAc(b1-3)GalNAc
# Outline: as §1
# [21] = target: Gal(a1-3)Gal(b1-3)GlcNAc(b1-6)GalNAc
# Outline: as §1
# [22] = target: Gal(a1-3)Gal(b1-3)[Fuc(a1-4)]GlcNAc(b1-2)Man(a1-3)[Gal(a1-3)Gal(b1-3)[Fuc(a1-4)]GlcNAc(b1-2)Man(a1-6)]Man(b1-4)GlcNAc(b1-4)GlcNAc
# Outline: as §1
# Gal(a1-3)Gal(b1-4)Glc = target: Gal(a1-3)Gal(b1-4)Glc
# Outline: as §1
# Gal(a1-3)Gal(b1-4)GlcNAc = target: Gal(a1-3)Gal(b1-4)GlcNAc
# Outline: as §1
# [23] = target: Gal(a1-3)Gal(b1-4)GlcNAc(b1-2)Man
# Outline: as §1
# [24] = target: Gal(a1-3)Gal(b1-4)GlcNAc(b1-2)Man(a1-3)[Gal(a1-3)Gal(b1-4)GlcNAc(b1-2)Man(a1-6)]Man(b1-4)GlcNAc(b1-4)GlcNAc
# Outline: as §1
# [25] = target: Gal(a1-3)Gal(b1-4)GlcNAc(b1-3)GalNAc
# Outline: as §1
# [26] = target: Gal(a1-3)Gal(b1-4)GlcNAc(b1-6)GalNAc
# Outline: as §1
# [27] = target: Gal(a1-3)Gal(b1-4)[Fuc(a1-3)]GlcNAc
# Outline: as §1
# [28] = target: Gal(a1-3)Gal(b1-4)[Fuc(a1-3)]GlcNAc(b1-2)Man(a1-3)[Gal(a1-3)Gal(b1-4)[Fuc(a1-3)]GlcNAc(b1-2)Man(a1-6)]Man(b1-4)GlcNAc(b1-4)GlcNAc
# Outline: as §1
# Gal(a1-3)GalNAc = target: Gal(a1-3)GalNAc
# Outline: as §1
# [29] = target: Gal(a1-3)[Gal(a1-4)]Gal(b1-4)GlcNAc
# Outline: as §1
# [30] = target: Gal(a1-4)Gal(b1-3)GlcNAc(b1-2)Man(a1-3)[Gal(a1-4)Gal(b1-3)GlcNAc(b1-2)Man(a1-6)]Man(b1-4)GlcNAc(b1-4)GlcNAc
# Outline: as §1
# Gal(a1-4)Gal(b1-4)Glc = target: Gal(a1-4)Gal(b1-4)Glc
# Outline: as §1
# Gal(a1-4)Gal(b1-4)GlcNAc = target: Gal(a1-4)Gal(b1-4)GlcNAc
# Outline: as §1
# [31] = target: Gal(a1-4)Gal(b1-4)GlcNAc(b1-2)Man(a1-3)[Gal(a1-4)Gal(b1-4)GlcNAc(b1-2)Man(a1-6)]Man(b1-4)GlcNAc(b1-4)GlcNAc
# Outline: as §1
# [32] = target: Gal(a1-4)Gal(b1-4)GlcNAc(b1-3)Gal(b1-4)Glc
# Outline: as §1
# Gal(a1-4)GlcNAc = target: Gal(a1-4)GlcNAc
# Outline: as §1
# Gal(a1-6)Glc = target: Gal(a1-6)Glc
# Outline: as §1
binder,measurement,setting,value
B1,glycan array binding signal (z-score),Fuc(a1-3)GlcNAc,-0.394
same,glycan array binding signal (z-score),[1],0.21
same,glycan array binding signal (z-score),[2],-0.632
same,glycan array binding signal (z-score),[3],-0.28
same,glycan array binding signal (z-score),[4],0.121
same,glycan array binding signal (z-score),[5],-0.036
same,glycan array binding signal (z-score),[6],-0.394
same,glycan array binding signal (z-score),[7],-0.163
same,glycan array binding signal (z-score),[8],-0.736
same,glycan array binding signal (z-score),[9],-0.051
same,glycan array binding signal (z-score),[10],0.153
same,glycan array binding signal (z-score),[11],0.16
same,glycan array binding signal (z-score),[12],0.115
same,glycan array binding signal (z-score),[13],-0.239
same,glycan array binding signal (z-score),[14],0.244
same,glycan array binding signal (z-score),[15],-0.206
same,glycan array binding signal (z-score),[16],-0.169
same,glycan array binding signal (z-score),[17],-0.537
same,glycan array binding signal (z-score),Fuc(a1-4)GlcNAc,0.109
same,glycan array binding signal (z-score),Fuc(b1-3)GlcNAc,-0.018
same,glycan array binding signal (z-score),Gal(a1-2)Gal,-0.278
same,glycan array binding signal (z-score),Gal(a1-3)Gal,-0.706
same,glycan array binding signal (z-score),Gal(a1-3)Gal(b1-3)GlcNAc,-0.421
same,glycan array binding signal (z-score),[18],-0.638
same,glycan array binding signal (z-score),[19],0.326
same,glycan array binding signal (z-score),[20],-0.186
same,glycan array binding signal (z-score),[21],-0.207
same,glycan array binding signal (z-score),[22],-1.23
same,glycan array binding signal (z-score),Gal(a1-3)Gal(b1-4)Glc,-0.201
same,glycan array binding signal (z-score),Gal(a1-3)Gal(b1-4)GlcNAc,-0.284
same,glycan array binding signal (z-score),[23],-0.316
same,glycan array binding signal (z-score),[24],1.2
same,glycan array binding signal (z-score),[25],-0.161
same,glycan array binding signal (z-score),[26],-0.551
same,glycan array binding signal (z-score),[27],-0.12
same,glycan array binding signal (z-score),[28],3.75
same,glycan array binding signal (z-score),Gal(a1-3)GalNAc,-0.045
same,glycan array binding signal (z-score),[29],-0.628
same,glycan array binding signal (z-score),[30],0.715
same,glycan array binding signal (z-score),Gal(a1-4)Gal(b1-4)Glc,-0.307
same,glycan array binding signal (z-score),Gal(a1-4)Gal(b1-4)GlcNAc,-0.429
same,glycan array binding signal (z-score),[31],3.37
same,glycan array binding signal (z-score),[32],-0.475
same,glycan array binding signal (z-score),Gal(a1-4)GlcNAc,-0.156
same,glycan array binding signal (z-score),Gal(a1-6)Glc,-0.274
